This note sets out measurements from PMC9899276.

Amino acid sequences for entries named in this document (tags omitted). A change or cut given only in a name is not applied to a line headed by its entry.
UniProt Q86WV6: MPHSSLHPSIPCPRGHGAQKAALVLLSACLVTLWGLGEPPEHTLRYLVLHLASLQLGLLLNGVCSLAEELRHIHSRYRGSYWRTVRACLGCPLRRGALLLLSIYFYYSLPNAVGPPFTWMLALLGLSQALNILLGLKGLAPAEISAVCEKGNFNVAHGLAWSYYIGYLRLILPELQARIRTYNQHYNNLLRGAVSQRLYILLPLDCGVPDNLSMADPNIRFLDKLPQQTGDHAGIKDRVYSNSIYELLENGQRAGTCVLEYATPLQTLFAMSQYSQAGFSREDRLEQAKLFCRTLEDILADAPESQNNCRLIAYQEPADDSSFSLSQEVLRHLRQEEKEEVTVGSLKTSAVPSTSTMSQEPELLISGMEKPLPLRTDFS
UniProt Q8NEZ2: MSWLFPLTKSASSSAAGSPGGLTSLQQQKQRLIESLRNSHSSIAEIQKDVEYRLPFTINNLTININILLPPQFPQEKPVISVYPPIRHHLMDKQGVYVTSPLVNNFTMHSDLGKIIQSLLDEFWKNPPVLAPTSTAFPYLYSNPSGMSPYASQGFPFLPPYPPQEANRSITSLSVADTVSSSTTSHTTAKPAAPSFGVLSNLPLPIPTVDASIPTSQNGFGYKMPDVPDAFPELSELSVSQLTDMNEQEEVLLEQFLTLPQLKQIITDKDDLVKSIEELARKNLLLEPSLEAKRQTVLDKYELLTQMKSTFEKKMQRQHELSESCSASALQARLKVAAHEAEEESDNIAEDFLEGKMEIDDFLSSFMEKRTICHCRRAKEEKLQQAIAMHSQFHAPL
UniProt O14964: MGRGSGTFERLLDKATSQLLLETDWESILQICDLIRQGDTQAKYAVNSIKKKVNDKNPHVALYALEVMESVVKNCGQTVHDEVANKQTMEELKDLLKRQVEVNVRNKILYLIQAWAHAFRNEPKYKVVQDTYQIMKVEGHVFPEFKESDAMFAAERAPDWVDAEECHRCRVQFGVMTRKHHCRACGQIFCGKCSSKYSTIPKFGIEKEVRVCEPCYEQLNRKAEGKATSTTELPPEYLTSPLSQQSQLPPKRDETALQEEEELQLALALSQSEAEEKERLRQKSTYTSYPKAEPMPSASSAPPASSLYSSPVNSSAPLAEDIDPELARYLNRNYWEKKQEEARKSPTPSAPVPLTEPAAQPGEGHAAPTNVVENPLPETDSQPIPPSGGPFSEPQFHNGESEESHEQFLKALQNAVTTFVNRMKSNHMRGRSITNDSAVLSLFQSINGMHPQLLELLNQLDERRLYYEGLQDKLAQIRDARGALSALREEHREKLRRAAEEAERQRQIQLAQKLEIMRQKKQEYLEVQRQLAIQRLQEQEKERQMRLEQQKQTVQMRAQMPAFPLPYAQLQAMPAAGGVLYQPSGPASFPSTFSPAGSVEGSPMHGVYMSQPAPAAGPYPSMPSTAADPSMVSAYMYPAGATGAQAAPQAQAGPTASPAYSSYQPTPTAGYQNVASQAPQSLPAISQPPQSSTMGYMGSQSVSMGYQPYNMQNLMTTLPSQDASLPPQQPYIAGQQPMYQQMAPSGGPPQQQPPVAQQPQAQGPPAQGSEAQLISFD

Assay in all cases: co-IP; 293T stably expressing STING-HA (WT, V155M or R284S), transfected with mScarlet-HGS or mScarlet-VPS37A, not stimulated; lysis in 20 mM Tris-HCl pH 7.5, 150 mM NaCl, 0.5% NP-40; anti-HA magnetic beads O/N at 4 °C; immunoblot
Background: Immunoblotting shows a protein as a band on a membrane.

Assay [1] has as its target STING R284S-HA (human) (UniProt Q86WV6).
The target in assay [2] is STING V155M-HA (human) (UniProt Q86WV6).
The target of assay [3] is HA-tagged wild-type (WT) STING (human) (UniProt Q86WV6).

These are yes or no findings as the source states them, for the method shown. Binding seen in cells or lysates may run through a third protein. Some entries that bind do so weakly or less than the wild type.

As to “mScarlet-VPS37A (from UniProt Q8NEZ2 1-397)”, the binding entry in assay [1] and in assay [2] was “binds” each time.
On to “mScarlet-HGS (from UniProt O14964 1-777)”, for which the binding result is “binds” in assay [1], “no binding (condition: cells not stimulated with cGAMP)” in assay [3] and “binds” in assay [2].
